Here are results for 6 molecules from article PMC8664570.

Sequences of proteins named here, by UniProt entry; tags and fusion partners are left off.
UniProt A0A1C3NSL9: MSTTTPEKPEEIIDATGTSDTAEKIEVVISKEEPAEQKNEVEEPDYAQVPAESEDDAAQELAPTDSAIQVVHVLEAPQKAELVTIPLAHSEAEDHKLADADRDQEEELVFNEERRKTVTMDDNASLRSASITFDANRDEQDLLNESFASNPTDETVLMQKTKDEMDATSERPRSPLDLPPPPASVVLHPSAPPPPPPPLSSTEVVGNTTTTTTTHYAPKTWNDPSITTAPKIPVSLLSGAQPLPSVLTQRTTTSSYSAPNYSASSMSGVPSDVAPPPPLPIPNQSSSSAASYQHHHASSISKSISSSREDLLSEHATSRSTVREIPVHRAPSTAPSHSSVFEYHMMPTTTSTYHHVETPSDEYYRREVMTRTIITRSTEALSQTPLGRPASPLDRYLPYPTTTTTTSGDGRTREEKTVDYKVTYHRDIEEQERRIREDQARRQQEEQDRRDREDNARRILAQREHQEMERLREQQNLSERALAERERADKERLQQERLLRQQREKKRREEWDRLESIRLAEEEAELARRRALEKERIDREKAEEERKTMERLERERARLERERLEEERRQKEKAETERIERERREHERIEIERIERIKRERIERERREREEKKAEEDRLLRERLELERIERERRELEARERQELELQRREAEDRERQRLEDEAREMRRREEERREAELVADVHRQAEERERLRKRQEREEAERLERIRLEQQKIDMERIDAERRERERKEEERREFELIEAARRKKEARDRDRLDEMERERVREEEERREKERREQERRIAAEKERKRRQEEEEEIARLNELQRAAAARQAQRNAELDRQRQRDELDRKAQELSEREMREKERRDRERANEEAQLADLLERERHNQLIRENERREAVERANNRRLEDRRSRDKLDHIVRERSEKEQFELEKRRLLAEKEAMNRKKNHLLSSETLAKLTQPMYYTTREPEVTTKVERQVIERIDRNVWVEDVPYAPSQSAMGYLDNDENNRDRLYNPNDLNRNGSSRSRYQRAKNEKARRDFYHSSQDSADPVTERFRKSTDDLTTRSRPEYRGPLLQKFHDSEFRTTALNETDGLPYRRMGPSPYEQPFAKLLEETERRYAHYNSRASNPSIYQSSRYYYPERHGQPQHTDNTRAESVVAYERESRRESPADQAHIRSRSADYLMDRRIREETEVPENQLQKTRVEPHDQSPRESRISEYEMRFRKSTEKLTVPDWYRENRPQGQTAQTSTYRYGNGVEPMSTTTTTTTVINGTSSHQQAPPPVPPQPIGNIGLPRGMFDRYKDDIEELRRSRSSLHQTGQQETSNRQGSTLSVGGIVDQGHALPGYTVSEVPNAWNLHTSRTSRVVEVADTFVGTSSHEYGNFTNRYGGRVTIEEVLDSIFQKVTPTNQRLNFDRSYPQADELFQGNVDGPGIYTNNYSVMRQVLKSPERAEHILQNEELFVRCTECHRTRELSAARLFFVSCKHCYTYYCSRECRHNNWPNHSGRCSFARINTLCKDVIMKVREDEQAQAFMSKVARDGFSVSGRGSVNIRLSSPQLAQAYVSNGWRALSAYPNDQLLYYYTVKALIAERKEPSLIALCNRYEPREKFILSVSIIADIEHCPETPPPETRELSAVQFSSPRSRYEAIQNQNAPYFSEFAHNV

Holding throughout (experiment): light-induced coclustering (CeLINC), fluorescence microscopy; in live C. elegans larvae (L2-L4), intestine and/or epidermis; GFP-tagged bait trapped by CRY2(olig)::VHH(GFP) in CRY2(olig)/CIBN-MP clusters, clusters preactivated by white light during mounting; coclustering of the prey of another colour scored (images, ComDet); cannot tell direct from indirect interactions

The target in assay [1] is T1, DLG-1::GFP (expressed from the elt-2 promoter) (C. elegans) (UniProt G5ECY0).
T1 sequence: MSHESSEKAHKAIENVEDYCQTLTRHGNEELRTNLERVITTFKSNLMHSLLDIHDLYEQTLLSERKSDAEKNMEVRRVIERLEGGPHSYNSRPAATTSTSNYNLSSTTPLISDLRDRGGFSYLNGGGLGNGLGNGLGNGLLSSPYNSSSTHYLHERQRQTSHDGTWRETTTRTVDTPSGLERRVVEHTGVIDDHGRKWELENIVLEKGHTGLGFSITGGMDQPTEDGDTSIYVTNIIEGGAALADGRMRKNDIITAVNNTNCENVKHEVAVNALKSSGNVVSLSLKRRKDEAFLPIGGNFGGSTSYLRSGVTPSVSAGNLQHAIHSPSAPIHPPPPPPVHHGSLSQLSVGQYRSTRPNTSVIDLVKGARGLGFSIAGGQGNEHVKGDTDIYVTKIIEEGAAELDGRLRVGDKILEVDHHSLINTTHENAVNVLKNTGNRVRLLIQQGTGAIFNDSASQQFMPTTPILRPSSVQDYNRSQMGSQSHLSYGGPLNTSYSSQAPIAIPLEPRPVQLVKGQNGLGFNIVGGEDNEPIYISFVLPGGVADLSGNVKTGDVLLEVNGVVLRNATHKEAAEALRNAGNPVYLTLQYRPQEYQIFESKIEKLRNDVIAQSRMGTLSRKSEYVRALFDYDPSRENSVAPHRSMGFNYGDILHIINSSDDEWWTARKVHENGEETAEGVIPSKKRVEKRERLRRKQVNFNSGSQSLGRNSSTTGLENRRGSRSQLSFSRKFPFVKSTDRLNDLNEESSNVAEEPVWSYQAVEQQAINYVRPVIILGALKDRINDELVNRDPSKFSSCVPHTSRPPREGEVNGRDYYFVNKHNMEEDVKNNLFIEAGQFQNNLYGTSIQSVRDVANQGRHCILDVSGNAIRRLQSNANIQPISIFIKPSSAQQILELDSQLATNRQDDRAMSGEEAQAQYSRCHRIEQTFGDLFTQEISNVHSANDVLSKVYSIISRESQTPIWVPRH

Assay [2] concerns the target T2, DLG-1::GFP (endogenous tag) (C. elegans) (UniProt G5ECY0).
T2 sequence: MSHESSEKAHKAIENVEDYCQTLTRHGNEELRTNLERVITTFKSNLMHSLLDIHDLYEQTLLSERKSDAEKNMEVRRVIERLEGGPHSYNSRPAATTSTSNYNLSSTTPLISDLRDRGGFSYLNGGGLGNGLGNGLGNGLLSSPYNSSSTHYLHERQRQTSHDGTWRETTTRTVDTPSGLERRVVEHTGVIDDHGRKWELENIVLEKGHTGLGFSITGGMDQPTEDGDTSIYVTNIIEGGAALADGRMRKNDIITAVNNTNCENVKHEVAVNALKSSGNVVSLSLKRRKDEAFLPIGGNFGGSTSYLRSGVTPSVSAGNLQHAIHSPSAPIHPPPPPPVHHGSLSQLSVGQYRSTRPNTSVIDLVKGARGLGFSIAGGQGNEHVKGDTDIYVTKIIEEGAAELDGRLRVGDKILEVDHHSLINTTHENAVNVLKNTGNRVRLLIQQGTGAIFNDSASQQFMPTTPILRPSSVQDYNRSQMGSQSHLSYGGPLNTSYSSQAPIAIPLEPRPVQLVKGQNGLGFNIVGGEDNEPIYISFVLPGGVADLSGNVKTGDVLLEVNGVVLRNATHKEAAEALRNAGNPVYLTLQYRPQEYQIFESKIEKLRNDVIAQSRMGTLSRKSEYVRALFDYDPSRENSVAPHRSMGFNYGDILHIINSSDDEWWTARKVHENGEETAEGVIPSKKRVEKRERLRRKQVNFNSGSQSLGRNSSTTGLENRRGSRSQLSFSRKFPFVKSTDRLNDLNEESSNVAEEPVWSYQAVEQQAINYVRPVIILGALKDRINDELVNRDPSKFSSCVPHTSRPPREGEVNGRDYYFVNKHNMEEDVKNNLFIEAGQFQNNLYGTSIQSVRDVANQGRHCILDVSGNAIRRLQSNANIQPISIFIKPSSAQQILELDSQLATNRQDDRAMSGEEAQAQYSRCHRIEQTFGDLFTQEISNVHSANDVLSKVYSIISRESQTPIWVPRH

The target of another assay is T3, GFP::PKC-3 (C. elegans) (UniProt Q19266).
T3 sequence: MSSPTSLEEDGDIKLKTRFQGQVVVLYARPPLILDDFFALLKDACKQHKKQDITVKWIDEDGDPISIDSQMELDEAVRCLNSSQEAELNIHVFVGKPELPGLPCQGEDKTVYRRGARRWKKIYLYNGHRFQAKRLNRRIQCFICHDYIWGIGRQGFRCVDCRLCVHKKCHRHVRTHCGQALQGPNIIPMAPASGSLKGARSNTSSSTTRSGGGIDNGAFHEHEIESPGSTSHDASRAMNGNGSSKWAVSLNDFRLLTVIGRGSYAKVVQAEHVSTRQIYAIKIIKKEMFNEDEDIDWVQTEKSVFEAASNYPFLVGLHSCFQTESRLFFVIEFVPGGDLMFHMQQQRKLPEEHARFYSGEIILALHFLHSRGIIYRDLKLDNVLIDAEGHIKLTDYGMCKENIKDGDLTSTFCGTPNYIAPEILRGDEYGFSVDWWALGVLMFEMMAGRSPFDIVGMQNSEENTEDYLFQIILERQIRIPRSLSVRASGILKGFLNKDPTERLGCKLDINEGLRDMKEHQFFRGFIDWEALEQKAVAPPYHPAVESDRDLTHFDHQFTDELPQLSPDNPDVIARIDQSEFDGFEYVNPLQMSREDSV

For assay [3], the target named is T4, LET-413 (endogenously tagged) (C. elegans) (UniProt O61967).
T4 sequence: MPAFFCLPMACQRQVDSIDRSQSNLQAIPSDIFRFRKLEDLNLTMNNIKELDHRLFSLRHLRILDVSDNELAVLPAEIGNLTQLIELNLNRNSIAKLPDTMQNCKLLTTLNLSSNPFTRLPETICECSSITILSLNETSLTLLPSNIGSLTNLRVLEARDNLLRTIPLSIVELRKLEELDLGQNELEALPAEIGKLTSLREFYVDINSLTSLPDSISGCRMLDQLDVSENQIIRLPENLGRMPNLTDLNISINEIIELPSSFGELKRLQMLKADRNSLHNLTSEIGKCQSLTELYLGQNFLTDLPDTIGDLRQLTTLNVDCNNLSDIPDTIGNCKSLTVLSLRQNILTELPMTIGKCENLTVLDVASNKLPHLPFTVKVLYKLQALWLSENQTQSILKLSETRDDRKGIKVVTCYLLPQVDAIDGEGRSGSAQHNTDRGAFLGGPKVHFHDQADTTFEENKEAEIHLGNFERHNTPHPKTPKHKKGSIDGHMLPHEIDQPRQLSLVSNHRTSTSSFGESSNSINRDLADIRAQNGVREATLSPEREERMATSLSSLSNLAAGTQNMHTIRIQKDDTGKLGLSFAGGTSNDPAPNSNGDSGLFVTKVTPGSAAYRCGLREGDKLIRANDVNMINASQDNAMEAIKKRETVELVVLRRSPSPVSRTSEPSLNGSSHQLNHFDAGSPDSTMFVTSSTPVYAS

In assay [4] the target is T5, DLG-1 (endogenously tagged, as tested with LET-413 and LGL-1) (C. elegans) (UniProt G5ECY0).
T5 sequence: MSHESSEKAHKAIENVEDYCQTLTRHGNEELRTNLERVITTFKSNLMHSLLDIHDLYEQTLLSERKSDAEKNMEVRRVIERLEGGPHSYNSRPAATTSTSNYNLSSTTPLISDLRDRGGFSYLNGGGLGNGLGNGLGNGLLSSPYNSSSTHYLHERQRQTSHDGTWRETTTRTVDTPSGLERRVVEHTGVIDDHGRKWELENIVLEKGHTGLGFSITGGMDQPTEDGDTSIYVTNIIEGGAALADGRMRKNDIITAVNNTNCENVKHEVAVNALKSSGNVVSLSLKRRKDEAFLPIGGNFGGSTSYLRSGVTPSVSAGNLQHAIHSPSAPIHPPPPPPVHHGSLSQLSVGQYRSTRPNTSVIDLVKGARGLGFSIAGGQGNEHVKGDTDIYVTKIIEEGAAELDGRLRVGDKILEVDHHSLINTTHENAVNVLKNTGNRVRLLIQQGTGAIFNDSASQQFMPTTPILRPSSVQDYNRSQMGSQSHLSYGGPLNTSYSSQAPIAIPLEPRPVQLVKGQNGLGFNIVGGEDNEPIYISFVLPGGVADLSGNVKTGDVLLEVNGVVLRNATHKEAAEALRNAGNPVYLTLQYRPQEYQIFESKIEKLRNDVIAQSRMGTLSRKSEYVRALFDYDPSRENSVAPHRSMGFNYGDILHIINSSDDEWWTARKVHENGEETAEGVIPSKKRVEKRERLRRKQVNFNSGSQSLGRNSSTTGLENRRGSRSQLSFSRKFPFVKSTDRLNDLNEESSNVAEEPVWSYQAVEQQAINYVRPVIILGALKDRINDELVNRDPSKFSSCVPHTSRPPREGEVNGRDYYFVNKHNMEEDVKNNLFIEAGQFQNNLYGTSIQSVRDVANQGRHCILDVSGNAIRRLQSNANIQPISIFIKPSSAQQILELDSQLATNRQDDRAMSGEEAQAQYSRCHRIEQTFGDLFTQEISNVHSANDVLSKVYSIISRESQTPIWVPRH

Results are given in words; binding and its absence hold for the method and conditions named. Some entries that bind do so weakly or less than the wild type. Sequences can lack the tags named with a protein.

“AJM-1::mCherry (expressed from the elt-2 promoter) (from UniProt A0A1C3NSL9 1-1644)”: the binding entry in assay [1] is reported as “binds”.

Turning to “AJM-1::mCherry (multicopy insertion) (from UniProt A0A1C3NSL9 1-1644)”, the binding result in assay [2] was “binds”.

B1: mKate2::PAR-6(ΔPB1) (protein, UniProt Q9NAN2)
chain: MSYNGSYHQNHHSTSIPMHSASGVSYDGFRSLVEKLHHLESVQFTLCYNSTGGDLLPITNDDNLRKSFESARPLLRLLIQRRGESWEEKYGYGTDSDKRWKGISSLMAQKPPKRSYSISNPEDFRQVSAIIDVDIVPEAHRRVRLCKHGQERPLGFYIRDGTSVRVTERGVVKVSGIFISRLVDGGLAESTGLLGVNDEVLEVNGIEVLGKTLDQVTDMMVANAHNLIITVKPANQRNTLSRGPSQQGTPNASEMSAATAAATGGIQRPMKMNGSSDGSYHPKQHDANDSDSGED
Take B1: the binding entry with GFP::PKC-3 (C. elegans) was “no binding”.

B2: DLG-1 (endogenously tagged, as tested with LET-413 and LGL-1) (protein, UniProt G5ECY0 1-967)
chain: MSHESSEKAHKAIENVEDYCQTLTRHGNEELRTNLERVITTFKSNLMHSLLDIHDLYEQTLLSERKSDAEKNMEVRRVIERLEGGPHSYNSRPAATTSTSNYNLSSTTPLISDLRDRGGFSYLNGGGLGNGLGNGLGNGLLSSPYNSSSTHYLHERQRQTSHDGTWRETTTRTVDTPSGLERRVVEHTGVIDDHGRKWELENIVLEKGHTGLGFSITGGMDQPTEDGDTSIYVTNIIEGGAALADGRMRKNDIITAVNNTNCENVKHEVAVNALKSSGNVVSLSLKRRKDEAFLPIGGNFGGSTSYLRSGVTPSVSAGNLQHAIHSPSAPIHPPPPPPVHHGSLSQLSVGQYRSTRPNTSVIDLVKGARGLGFSIAGGQGNEHVKGDTDIYVTKIIEEGAAELDGRLRVGDKILEVDHHSLINTTHENAVNVLKNTGNRVRLLIQQGTGAIFNDSASQQFMPTTPILRPSSVQDYNRSQMGSQSHLSYGGPLNTSYSSQAPIAIPLEPRPVQLVKGQNGLGFNIVGGEDNEPIYISFVLPGGVADLSGNVKTGDVLLEVNGVVLRNATHKEAAEALRNAGNPVYLTLQYRPQEYQIFESKIEKLRNDVIAQSRMGTLSRKSEYVRALFDYDPSRENSVAPHRSMGFNYGDILHIINSSDDEWWTARKVHENGEETAEGVIPSKKRVEKRERLRRKQVNFNSGSQSLGRNSSTTGLENRRGSRSQLSFSRKFPFVKSTDRLNDLNEESSNVAEEPVWSYQAVEQQAINYVRPVIILGALKDRINDELVNRDPSKFSSCVPHTSRPPREGEVNGRDYYFVNKHNMEEDVKNNLFIEAGQFQNNLYGTSIQSVRDVANQGRHCILDVSGNAIRRLQSNANIQPISIFIKPSSAQQILELDSQLATNRQDDRAMSGEEAQAQYSRCHRIEQTFGDLFTQEISNVHSANDVLSKVYSIISRESQTPIWVPRH
In the case of B2, the binding entry in assay [3] is “no binding”.

B3: LET-413 (endogenously tagged) (protein, UniProt O61967 1-699)
chain: MPAFFCLPMACQRQVDSIDRSQSNLQAIPSDIFRFRKLEDLNLTMNNIKELDHRLFSLRHLRILDVSDNELAVLPAEIGNLTQLIELNLNRNSIAKLPDTMQNCKLLTTLNLSSNPFTRLPETICECSSITILSLNETSLTLLPSNIGSLTNLRVLEARDNLLRTIPLSIVELRKLEELDLGQNELEALPAEIGKLTSLREFYVDINSLTSLPDSISGCRMLDQLDVSENQIIRLPENLGRMPNLTDLNISINEIIELPSSFGELKRLQMLKADRNSLHNLTSEIGKCQSLTELYLGQNFLTDLPDTIGDLRQLTTLNVDCNNLSDIPDTIGNCKSLTVLSLRQNILTELPMTIGKCENLTVLDVASNKLPHLPFTVKVLYKLQALWLSENQTQSILKLSETRDDRKGIKVVTCYLLPQVDAIDGEGRSGSAQHNTDRGAFLGGPKVHFHDQADTTFEENKEAEIHLGNFERHNTPHPKTPKHKKGSIDGHMLPHEIDQPRQLSLVSNHRTSTSSFGESSNSINRDLADIRAQNGVREATLSPEREERMATSLSSLSNLAAGTQNMHTIRIQKDDTGKLGLSFAGGTSNDPAPNSNGDSGLFVTKVTPGSAAYRCGLREGDKLIRANDVNMINASQDNAMEAIKKRETVELVVLRRSPSPVSRTSEPSLNGSSHQLNHFDAGSPDSTMFVTSSTPVYAS
As to B3, the binding result in assay [4] is reported as “no binding”.

B4: mKate2::PAR-6 (protein, UniProt Q9NAN2 1-309)
chain: MSYNGSYHQNHHSTLQVKSKFDSEWRRFSIPMHSASGVSYDGFRSLVEKLHHLESVQFTLCYNSTGGDLLPITNDDNLRKSFESARPLLRLLIQRRGESWEEKYGYGTDSDKRWKGISSLMAQKPPKRSYSISNPEDFRQVSAIIDVDIVPEAHRRVRLCKHGQERPLGFYIRDGTSVRVTERGVVKVSGIFISRLVDGGLAESTGLLGVNDEVLEVNGIEVLGKTLDQVTDMMVANAHNLIITVKPANQRNTLSRGPSQQGTPNASEMSAATAAATGGIQRPMKMNGSSDGSYHPKQHDANDSDSGED
As for B4, the binding result with GFP::PKC-3 (C. elegans) is “binds”.
